Experimental data: PubChem BioAssay AID624418 (National Center for Advancing Translational Sciences (NCATS), 2012)
Hit rate of the full screen: of about 410,000 compounds, about 530 (0.13%) were called active. The shares of active, inactive and inconclusive entries below differ from those in the screen. Calls follow the shape of the dose curve; as a rule, active = well fitted inhibition curve with a large enough effect; inconclusive = small, poorly fitted or top-dose-only effect, or another doubt; inactive = no such curve, though single readings can be large or run the other way. A potency beside an inconclusive call is a rough fit, not a confirmed value.

Experiment: qHTS of GLP-1 Receptor Inverse Agonists: Cytotox Screen
Settings: HEK293 cAMP-luciferase reporter cells, luminescence, 24 h; activity change, negative = inhibition: at 38.3 µM (top of the series) unless noted
Method in brief: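 Luminescence readout: signal drop marks cytotoxicity. Plated cells grew 12 h at 37 °C, 5% CO2, received 23 nL compound for 24 h, then got luciferase reagent, read after 12 min at RT.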
% is scaled to controls: 0 for no effect and ±100 for the full control effect; potency is read from the fitted curve at half-maximal effect.

| SMILES | Potency | activity change, negative = inhibition |
| --- | --- | --- |
| COc1cc(C(O)P(=O)(OCCC(C)C)c2ccc(N(C)C)cc2)cc(OC)c1OC (stereo not drawn) | inconclusive: 15.8 µM [inhibitor, single point] | – |
| CCc1ccc(OCC(=O)NC(NC(=S)Nc2ccccc2)C(Cl)(Cl)Cl)cc1 (stereo not drawn) | inconclusive: 28.2 µM [inhibitor, single point] | – |
| O=C1NC(=O)N(Cc2ccccc2)C(=O)/C1=C\c1ccco1 | – | inactive: -2.58% |
| COc1cccc(C(=O)C2CCCN(Cc3cccc(C)n3)C2)c1 (stereo not drawn) | inconclusive: 11.2 µM [inhibitor, partial curve] | – |
| CC(=O)Oc1ccc(-c2ccc(C(=O)Nc3cccc(S(=O)(=O)N4CCOCC4)c3)cc2)cc1 | inconclusive: 28.2 µM [inhibitor, single point] | – |
| CC(C)N1C(=O)/C(=C\c2nc3ccccc3c(=O)n2-c2ccccc2)c2ccccc21 | inconclusive: 14.1 µM [inhibitor, partial curve, poor fit] | – |
| Cc1ccccc1C1=NCC(=S)Nc2ccc(Cl)cc21 | inconclusive: 10 µM [inhibitor, partial curve, poor fit] | – |
| COc1ccc(C(O)P(=O)(OCCC(C)C)c2ccc(N(C)C)cc2)cc1OC (stereo not drawn) | inconclusive: 28.2 µM [inhibitor, single point] | – |
| NC(Cc1ccc(F)cc1)c1csc(Nc2cnccn2)n1 (stereo not drawn) | inconclusive: 3.55 µM [inhibitor, partial curve, poor fit] | – |
| CC(C)(C)c1ccc(/C=N/Nc2nncn2N)cc1 | inconclusive: 20 µM [inhibitor, single point] | – |
| CCOC(=O)c1cccc(-[n+]2c(-c3ccccc3)cc(-c3ccccc3)cc2-c2ccccc2)c1 | inconclusive: 22.4 µM [inhibitor, single point] | – |
| c1ccc(CCCN2CCN(CCOC(c3ccccc3)c3ccccc3)CC2)cc1 | inconclusive: 10 µM [inhibitor, single point] | – |
| CC(=O)NS(=O)(=O)c1ccc(NC(=O)c2cccn(Cc3ccc(Cl)cc3)c2=O)cc1 | – | inactive: 7.44% |
| CCN(CC)c1ccc(NC2=C(Cl)C(=O)c3ccccc3C2=O)cc1 | inconclusive: 10 µM [inhibitor, partial curve, poor fit] | – |
| CN(C)C(=O)Oc1ccc(Cl)c2cccnc12 | – | inactive: -4.2% |
| COc1ccc(NC(=S)NCCSc2ccc(Cl)cc2)c(OC)c1 | inconclusive: 31.6 µM [inhibitor, partial curve, poor fit] | – |
| COc1cccc(Nc2nc(C(N)Cc3ccc(Cl)cc3)cs2)n1 (stereo not drawn) | inconclusive: 28.2 µM [inhibitor, single point] | – |
| COC(=O)C1=C(C)N(Cc2ccccc2)C(=NCCc2c[nH]c3ccccc23)N[C@H]1c1cccc(F)c1 | inconclusive: 12.6 µM [inhibitor, single point] | – |
| Cc1cccc2sc(NNC(=O)c3cc(-c4cccs4)nc4ccccc34)nc12 | inconclusive: 10 µM [inhibitor, single point] | – |
| CN1CCN(c2ccccc2NC(=O)c2ccc(N3CCCC3)c([N+](=O)[O-])c2)CC1 | inconclusive: 12.6 µM [inhibitor, single point] | – |

| SMILES | Potency | activity change, negative = inhibition |
| --- | --- | --- |
| O=c1c(C=NCCN2CCNCC2)c(O)n(C2CCCCC2)c(=O)n1C1CCCCC1 | inconclusive: 11.2 µM [inhibitor, single point] | – |
| Cn1cnc([N+](=O)[O-])c1Oc1cccc(O)c1 | inconclusive: 11.2 µM [inhibitor, partial curve] | – |
| COc1ccc(NC(=O)c2ccc(-c3ccc(-c4noc(C)n4)cc3C)cc2)cc1N1CCN(C)CC1 | inconclusive: 28.2 µM [inhibitor, single point] | – |
| CCCC(=O)NC(NC(=S)Nc1ccc(N=Nc2ccccc2)cc1)C(Cl)(Cl)Cl (stereo not drawn) | inconclusive: 11.2 µM [inhibitor, single point] | – |
| CC1=C(C(=O)Nc2ccccn2)C(c2ccc(Br)cc2)NC(=S)N1 (stereo not drawn) | inconclusive: 11.2 µM [inhibitor, partial curve, poor fit] | – |
| COc1ccc(-c2nc(CN3CCN(c4cc(C)nc(C)c4)CC3)c(C)o2)c2ccccc12 | inconclusive: 11.2 µM [inhibitor, single point] | – |
| COc1cc(NC(=O)c2[nH]cnc2C(N)=O)cc(C(=O)Nc2cccc(C(F)(F)F)c2)c1 | inconclusive: 10 µM [inhibitor, partial curve] | – |
| Cc1ccc(NS(=O)(=O)c2cc(C(=O)Nc3cccc([N+](=O)[O-])c3)ccc2C)cc1 | inconclusive: 22.4 µM [inhibitor, single point] | – |
| O=C(N/N=C\c1ccc([N+](=O)[O-])o1)c1cncc(Br)c1 | inconclusive: 11.2 µM [inhibitor, partial curve, poor fit] | – |
| C=CCN(C(=O)C1CC(=O)N(C2CCCC2)C1)c1nc(-c2ccc(S(C)(=O)=O)cc2)cs1 (stereo not drawn) | inconclusive: 11.2 µM [inhibitor, partial curve, poor fit] | – |
| CSc1ncnc2c1ncn2CC(=O)C1CCC2C3CCC4=CC(=O)CCC4(C)C3CCC12C (stereo not drawn) | inconclusive: 11.2 µM [inhibitor, single point] | – |
| CN1CCN(CCOC2c3ccccc3CSc3ccc(Cl)cc32)CC1 (stereo not drawn) | inconclusive: 28.2 µM [inhibitor, single point] | – |
| CN1C(=O)C(=Cc2ccccc2OCCOc2ccc([N+](=O)[O-])cc2)C(=O)N(C)C1=O | – | inactive: -29.1% |
| CCOC(=O)C1CCCN(c2ccc([N+](=O)[O-])c3nonc23)C1 (stereo not drawn) | active: 10 µM | – |
| CCOC(=O)[C@]12Cc3cc(Cl)ccc3[C@H]1N(C(C)C)C(=O)c1ccccc12 | inconclusive: 10 µM [inhibitor, partial curve, poor fit] | – |
| CCc1ccc(N(CC)C(=O)c2ccc3c(Cl)c4c(nc3c2)CCC4)cc1 | inconclusive: 12.6 µM [inhibitor, single point] | – |
| COc1ccc(NC(=O)Nc2cccc(C(F)(F)F)c2)cn1 | inconclusive: 28.2 µM [inhibitor, single point] | – |
| Cc1ccc2nc(-c3ccccn3)c(Nc3ccccc3C)n2c1 | inconclusive: 0.447 µM [inhibitor, full curve, poor fit] | – |
| Cn1cnnc1Sc1cc(N2CCNCC2)ccc1[N+](=O)[O-] | inconclusive: 28.2 µM [inhibitor, single point] | – |
| Cc1c(NC(=O)/C(C#N)=C/c2ccc(-c3cccc(Cl)c3)o2)c(=O)n(-c2ccccc2)n1C | inconclusive: 14.1 µM [inhibitor, single point] | – |

| SMILES | Potency | activity change, negative = inhibition |
| --- | --- | --- |
| CCOC(=O)c1c(-n2c(C)cc(/C=C3/C(=O)NC(=O)N(CC)C3=O)c2C)sc2c1CCCC2 | – | inactive: -0.72% |
| Cc1ccc(/C=C/C(=O)c2ccccc(=O)c2O)c(C)c1 | inconclusive: 28.2 µM [inhibitor, single point] | – |
| COc1ccc2[nH]c(C)c(CCNC(=S)Nc3cc(C)cc(C)c3)c2c1 | inconclusive: 10 µM [inhibitor, single point] | – |
| O=C(O)c1ccccc1-c1ccc(C=C2C(=O)N(c3ccccc3)C(=S)N(c3ccccc3)C2=O)o1 | inconclusive: 1 µM [inhibitor, full curve, poor fit] | – |
| COc1cc2c(cc1OC)CN(c1ccc([N+](=O)[O-])c(C(F)(F)F)c1)CC2 | active: 10 µM | – |
| CCOc1cc(CNCCc2c[nH]c3ccccc23)cc(Cl)c1OCC | inconclusive: 28.2 µM [inhibitor, single point] | – |
| CN(C)c1ccc(C(CNS(=O)(=O)c2ccc(F)c(F)c2)c2c[nH]c3ccccc23)cc1 (stereo not drawn) | inconclusive: 28.2 µM [inhibitor, single point] | – |
| CCOCCCNC(=O)C1c2cc(OC)c(OC)cc2C(=O)N2CCCCC12 (stereo not drawn) | inconclusive: 1 µM [inhibitor, full curve, poor fit] | – |
| COC1C(OC(=O)c2ccc(C)[nH]2)C(O)C(Oc2ccc3c(O)c(NC(=O)c4ccc(O)c(CC=C(C)C)c4)c(=O)oc3c2Cl)OC1(C)C (stereo not drawn) | inconclusive: 22.4 µM [inhibitor, single point] | – |
| COc1ccc(/C=C/C(=O)c2ccccc2O)cc1CN1CCOCC1 | inconclusive: 22.4 µM [inhibitor, single point] | – |
| COc1ccc(OCC(=O)Nc2ccc(OC)c(S(=O)(=O)N3CCCCC3)c2)cc1 | inconclusive: 10 µM [inhibitor, single point] | – |
| O=C1NC(c2ccccc2)=C(c2nc3ccccc3s2)C(c2ccc(O)cc2)N1 (stereo not drawn) | inconclusive: 11.2 µM [inhibitor, partial curve, poor fit] | – |
| CN(CC(=O)Nc1cccc(F)c1)C(=O)c1ccccc1CCc1ccccc1 | inconclusive: 22.4 µM [inhibitor, single point] | – |
| CCn1nc(-c2cccs2)nc2c(=O)n(C)c(=O)nc1-2 | inconclusive: 0.891 µM [inhibitor, full curve, poor fit] | – |
| O=C(/C(=C/O)N=Nc1ccc(Cl)cc1)c1ccncc1 | inconclusive: 11.2 µM [inhibitor, single point] | – |
| C[C@H]1O[C@@H](OC2CC[C@]3(C=O)[C@H]4CC[C@]5(C)[C@@H](C6=CC(=O)OC6)CC[C@]5(O)[C@@H]4CC[C@]3(O)C2)CC2OC(C)(C)OC21 (stereo partly drawn) | inconclusive: 0.316 µM [inhibitor, full curve, poor fit] | – |
| Cc1ccc(C(=O)/C=C/c2ccccc2[N+](=O)[O-])cc1 | inconclusive: 2.82 µM [inhibitor, partial curve, poor fit] | – |
| CC1CCCCN1C(=O)c1cc2nc(-c3ccccc3)cc(-c3ccccc3)n2n1 (stereo not drawn) | – | inactive: 82.8% |
